Results taken from the supplement of paper PMC11876631.
Changes are numbered by the printed parent chain. Names and notes keep the numbering of the source. ± gives the standard deviation of the averaged measurements. Laboratory Escherichia coli strains with one amino-acid change in an essential protein, pooled on minimal glucose agar with carbenicillin or gentamicin at twice the control MIC (plus kanamycin and chloramphenicol for the plasmids), 48 h. Fold change of barcode share against drug-free plates; higher = less susceptible. Active = above 20 in both replicates (the paper's putatively resistant). '<' = one read or none on drug, '>' = one read or none on a drug-free plate. Shares are relative, so most strains fall below 1 when a few take over. Listed are strains with at least 15 reads on both drug-free plates, and hits; most hits rest on fewer reference reads. Replicate rank correlation about 0.5. Edits are read from barcodes.

B1: aroB I125Q (protein)
chain: MERIVVTLGERSYPITIASGLFNEPASFLPLKSGEQVMLVTNETLAPLYLDKVRGVLEQAGVNVDSVILPDGEQYKSLAVLDTVFTALLQKPHGRDTTLVALGGGVVGDLTGFAAASYQRGVRFQQVPTTLLSQVDSSVGGKTAVNHPLGKNMIGAFYQPASVVVDLDCLKTLPPRELASGLAEVIKYGIILDGAFFNWLEENLDALLRLDGPAMAYCIRRCCELKAEVVAADERETGLRALLNLGHTFGHAIEAEMGYGNWLHGEAVAAGMVMAARTSERLGQFSSAETQRIITLLKRAGLPVNGPREMSAQAYLPHMLRDKKVLAGEMRLILPLAIGKSEVRSGVSHELVLNAIADCQSA
B2: aroB M274A (protein)
chain: B1 chain with Q125I, M274A
B3: ligA V324A (protein)
chain: MESIEQQLTELRTTLRHHEYLYHVMDAPEIPDAEYDRLMRELRELETKHPELITPDSPTQRVGAAPLAAFSQIRHEVPMLSLDNVFDEESFLAFNKRVQDRLKNNEKVTWCCELKLDGLAVSILYENGVLVSAATRGDGTTGEDITSNVRTIRAIPLKLHGENIPARLEVRGEVFLPQAGFEKINEDARRTGGKVFANPRNAAAGSLRQLDPRITAKRPLTFFCYGVGVLEGGELPDTHLGRLLQFKKWGLPVSDRVTLCESAEEVLAFYHKVEEDRPTLGFDIDGVVIKVNSLAQQEQLGFVARAPRWAVAFKFPAQEQMTFARDVEFQVGRTGAITPVARLEPVHVAGVLVSNATLHNADEIERLGLRIGDKVVIRRAGDVIPQVVNVVLSERPEDTREVVFPTHCPVCGSDVERVEGEAVARCTGGLICGAQRKESLKHFVSRRAMDVDGMGDKIIDQLVEKEYVHTPADLFKLTAGKLTGLERMGPKSAQNVVNALEKAKETTFARFLYALGIREVGEATAAGLAAYFGTLEALEAASIEELQKVPDVGIVVASHVHNFFAEESNRNVISELLAEGVHWPAPIVINAEEIDSPFAGKTVVLTGSLSQMSRDDAKARLVELGAKVAGSVSKKTDLVIAGEAAGSKLAKAQELGIEVIDEAEMLRLLGS
B4: ligA V556A (protein)
chain: B3 chain with A324V, V556A
B5: ligA V556Q (protein)
chain: B3 chain with A324V, V556Q
B6: aroB M274Q (protein)
chain: B1 chain with Q125I, M274Q
B7: ligA V560A (protein)
chain: B3 chain with A324V, V560A
B8: ligA V560W (protein)
chain: B3 chain with A324V, V560W
B9: aroB M274D (protein)
chain: B1 chain with Q125I, M274D
B10: ligA I289Q (protein)
chain: B3 chain with I289Q, A324V

Target: Escherichia coli (laboratory strain)
Assay: barcode share on antibiotic plates over drug-free plates; higher = less susceptible
Experimental: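 A pool of E. coli strains, each edited to carry one amino-acid change in an essential protein, was grown for 48 h on minimal glucose agar with or without antibiotic; strain barcodes were sequenced; mean of two replicates.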

[1] = antibiotic: carbenicillin, 2× MIC (3.1 µg/mL)
[2] = antibiotic: gentamicin, 2× MIC (MIC 0.45 µg/mL)

| Protein | fold change of barcode share [1] | fold change of barcode share [2] |
| --- | --- | --- |
| B1 | 2.02 ± 1.1 | – |
| B2 | 0.481 ± 0.088 | 0.0137 ± 0.0096 |
| B3 | 0.282 ± 0.063 | < 0.00557 |
| B4 | 0.182 ± 0.041 | < 0.0126 |
| B5 | 0.33 ± 0.089 | < 0.0168 |
| B6 | 0.423 ± 0.055 | 0.00579 ± 9.5e-05 |
| B7 | 0.192 ± 0.057 | 0.0218 ± 0.024 |
| B8 | 0.261 ± 0.17 | 0.00698 ± 0.0026 |
| B9 | 40.9 [active] | – |
| B10 | 0.365 ± 0.064 | < 0.0145 |
